Values marked as one replicate rest on one cluster of the flow cell; about a third of the high ones do not repeat.
Test system: ATP
Assay: switch fluorescence ratio, 500 uM ATP over buffer (Cy3 cluster intensity, sum of 5 cycles each) (fold (ratio)); higher = stronger signal-on switching upon ATP binding; sequences stand for … in TCGTCGGCAGCGTCAGATGTGTATAAGAGACAGTTTTTTTTTTTTTTTTTTTTTTTTT…TC
Conditions: aptamer strand: ATP DNA aptamer (quencher-CACCTGGGGGAGTATTGCGGAGGAAGG + anchor), 100 nM annealed; ATP concentration: 500 uM; one replicate
Summary of the method: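 Clusters carrying Cy3-labelled switching strands on a modified Illumina MiSeq flow-cell were annealed to 100 nM quencher-labelled ATP aptamer and imaged in selection buffer. They were imaged again after 15 min with 500 uM ATP at 22 °C, over five buffer/ATP cycles with NaOH stripping and re-annealing in between. For each cluster, the fluorescence ratio is the summed Cy3 intensity of the target cycles divided by that of the buffer cycles, averaged per switch-domain sequence. Clusters outside 100-1000 RFU were left out.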
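Note: ATP exposure 15 min at 22 °C before imaging.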

Sequence	switch fluorescence ratio
GCAGTCTATT	0.977
TCACGAAAAC	1.34
GATACAAAGT	1.04
GCTTCGATTT	1
TTGGATTTTA	0.993
GGGACTTCAT	1
CACTTAAAGA	0.992
TTAGGGTTGC	0.975
GATATCTCTG	1.03
CGGAGCACC	3.49
AAGATAGAGG	0.978
GACGTCGTCA	0.984
CAAATCAACA	1.01
AAAGGCATAG	1.01
ATCCTTAATG	0.996
CATCTTTTTG	1
AGGAGGTCAG	0.946
TGAAGGTGGG	0.936
GCAGGACTCA	2.5
ATTTCCCGCC	1.3
AGCTTAACGG	1.02
GACTAATCGA	1
TCAGCGCT	0.994

Sequence	switch fluorescence ratio
AATTTTGGAA	1.01
TGCATTGCGC	0.999
CCATCGTTGC	1.21
TATAATCACT	1.01
CTAGGAAA	0.97
AAATCTAAGC	0.959
GAACGGAAAG	1.08
GGCGGGCTGC	0.957
CAGTGTCGTG	0.98
TGTCAATGTA	0.991
AATAACCGGT	1.02
TGCAGCGCG	0.958
TAAGGACCAC	1.1
TGGAAGCTG	1.05
GGCATAAAGT	0.976
GCTTTCGTCG	1.03
GTATCTGACC	1.03
GGATCCCCCG	1.07
ATCTGGGAGA	0.951
AATGGTCCAG	1.01
GCGGGCTCGC	1.03
AAACCGAGAC	1.72
TTATTGGTTA	0.997

Sequence	switch fluorescence ratio
TCTGTGCCGA	0.986
CAAAGGCCCA	0.974
AGTGTTGAAG	1.01
GTTATTGGAA	0.985
TTTATCTACG	1.14
GAGTTTTAGT	1.04
CGGCATTTGG	1.05
CGGGTCAAAT	0.986
CTTGACGCTA	1.8
GCGGCACG	0.986
TTGTATGCAC	0.981
TTATAAAATT	1.02
CAGTAGATTA	1.03
TGGAAAACGG	1.01
TGCTCACATT	0.963
ATTTGCTTGA	1.02
GGAATTGCTT	0.996
GTTTTAGG	0.996
GGTTCTGGGA	1.03
CTGTTGATCT	0.991
TGGATAGGCG	0.942
GATTTGGGCT	0.989
TGGGTGCGCT	0.975

Sequence	switch fluorescence ratio
AGTGGTTAC	1.03
AGTGGCTCTG	1.01
GGTATGGCTC	0.956
GCAGAATG	0.978
TTCTCTTTCA	1.02
ACTACACTGC	1.33
CGTTCCCCAT	1.01
GCCAATACAT	1.2
TACTCTGGGT	0.994
CAATTAGCTA	1.02
CACGTTCACT	1.51
TACAACGCAC	2.24
CAAGGGGAAC	0.983
ACAATGGTGC	1.08
ATTCGGGGAT	0.96
GCTTTTCCCG	1.04
AGCAAGCTGA	1.1
TACGGGATT	1.04
AGCTGGCTTT	0.987
CAAGAACTTT	1.02
TGGCATGTTT	1.01
TGGTATTCCC	1.02
ATGCGCCCTT	0.984

Sequence	switch fluorescence ratio
TTTTGTTCCA	1.04
CGCGTCAGAT	1.09
GGCCACCTGT	1.01
ATTGCGTATC	1.01
AACGTAAGG	1.11
GTTAACGTAC	1.82
TAGTTAAAAC	0.992
TTAATGGCAG	1.02
CCGACCATCT	2.54
CCTGCAAA	5.3
GGAATAAGTA	1.02
AGGGAGGTAC	0.914
GCGTTCGCAA	1.21
GAGTTGTCTG	1
AACAACGTCC	1.07
ACCTATATAA	1.07
CCATCATGCA	1.04
CGGGTCTGAC	1.03
AGTATGAGAA	0.977
GATGGGCTTA	1.04
GGTTTTGTCC	1.01
TAACAGGGTA	1.03
CGCACGGCTG	1.16

Sequence	switch fluorescence ratio
GCCGACATTT	1.09
GGTATGTCCC	0.972
TTGCTATAGG	0.988
CCGTGCTTGA	1.01
TATGCCCTGC	1.03
CGTGCGGAT	1.02
ATTATGAGTG	0.962
TAAGGTGGTG	1.02
TATACCACCT	1.28
GCCGATTTTT	0.985
CGTGGTAGCA	0.965
CCTGTAGGAA	1.04
CATGAAACAG	0.974
ACGGGCTCG	0.978
TATACGGATC	1.04
CTGGGGATAA	1
ATATTCAAAG	0.995
TCGCTGGTTT	1.06
CGTTGCCCCG	1.03
AGTGTCACG	1
TTCCGCGACA	4.15
AAATCGAGTT	0.986
ACTCGGGTGT	1.31

Sequence	switch fluorescence ratio
TCAGCGGGAA	0.995
AAACTGGTCA	1.05
TATAATGCGT	0.96
CATTTAGTTC	1
GAGGATGGCT	0.938
CTTGCTGGCG	0.977
AACGGTTGGG	1.02
CAGTCTGTTG	0.977
TAGGGTAGA	1.04
TCGGGTCGTT	1.02
TGAAGGCCCG	1.04
GACAAAGCCG	1.11
AACCGACGTG	1.17
CAAGCCGACT	1
AACTGGCCGG	1.01
CAGGTGAAAC	1.03
AAGTAGACGG	0.993
TTTACCCAT	1.05
GATGCGCGCT	0.946
AGAGCCATAC	3.74

Reference: the supplement of paper PMC10126150
